# From the supplement of paper PMC10037445
# Several values for one entry are separate records, joined by “and”; a condition that tells them apart may be missing. Equal values may be shown once. In all, about 2,900 compounds were measured (“NF-kB SEAP reporter activity, fold change vs agonist alone”: median about 0.99, highest 2% from about 2.6 on). The list shows a part of the results.
# Experiments:
# [1] = tested on: RAW-Dual; assay: NF-kB SEAP reporter activity, fold change vs agonist alone; higher = enhanced NF-kB activity; conditions: library stock concentration (final ~1000-fold dilution): 10 mM
# How it was run: (§1)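 Reporter activity is given as fold change relative to agonist-alone wells. To measure it, 50 nL of library stock was pin-tooled onto RAW-Dual macrophages (50,000 cells/well, DMEM, 384-well plates), a PRR agonist followed 1 h later, and cells stayed at 37 °C, 5% CO2. Twenty hours on, supernatant was assayed for IRF (QuantiLuc luminescence) and NF-κB (QuantiBlue, 620 nm absorbance), and wells under 70% of agonist-control IncuCyte confluency in both mask sets were marked cytotoxic.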
# [2] = tested on: RAW-Dual; assay: NF-kB SEAP reporter activity, fold change vs agonist alone; cytotoxicity flag (confluency mask): not cytotoxic; higher = enhanced NF-kB activity
# How it was run: as §1
# [3] = tested on: RAW-Dual; assay: NF-kB SEAP reporter activity, fold change vs agonist alone; cytotoxicity flag (confluency mask): cytotoxic (confluency <70% of control); higher = enhanced NF-kB activity; conditions: agonist: LPS (TLR4) 0.1 ug/mL
# How it was run: as §1
# [4] = cytotoxicity flag (confluency mask): not cytotoxic, agonist: Imiquimod (TLR7) […]
# [5] = cytotoxicity flag (confluency mask): not cytotoxic, agonist: MPLA (TLR4) […]
# [6] = agonist: ODN 1826 (TLR9) 0.5 ug/mL
# [7] = agonist: Pam2CSK4 (TLR2/6) 0.1 ug/mL
# [8] = agonist: Pam3CSK4 (TLR2/1) 0.1 ug/mL
compound,measurement,setting,value
COc1cc(C)[nH]c(=O)c1CNC(=O)c1c(C)n(C(C)C2CCOCC2)c2ccccc12 (configuration not stated),NF-kB SEAP reporter activity,[1]; [4],0.902
same,NF-kB SEAP reporter activity,[1]; [5],1.02
COc1cc(C)[nH]c(=O)c1CNC(=O)c1c(C)n(C(C)C2CCOCC2)c2ccccc12 (configuration not stated) (library stock concentration (final ~1000-fold dilution): 10 mM),NF-kB SEAP reporter activity,[2]; agonist: LPS (TLR4) 0.1 ug/mL,1.26
same,NF-kB SEAP reporter activity,[2]; [6],1.05
same,NF-kB SEAP reporter activity,[2]; [7],0.992
same,NF-kB SEAP reporter activity,[2]; [8],0.786
O=C1C=C2C=CC3CC2(O1)C1CCCCN31 (configuration not stated),NF-kB SEAP reporter activity,[1]; [4],0.985
same,NF-kB SEAP reporter activity,[1]; [5],0.718
O=C1C=C2C=CC3CC2(O1)C1CCCCN31 (configuration not stated) (library stock concentration (final ~1000-fold dilution): 10 mM),NF-kB SEAP reporter activity,[2]; agonist: LPS (TLR4) 0.1 ug/mL,0.776
same,NF-kB SEAP reporter activity,[2]; [6],1.11
same,NF-kB SEAP reporter activity,[2]; [7],1.47
same,NF-kB SEAP reporter activity,[2]; [8],0.954
CC(C)(C)c1cc(C=C(C#N)C#N)cc(C(C)(C)C)c1O,NF-kB SEAP reporter activity,"[1]; cytotoxicity flag (confluency mask): cytotoxic (confluency <70% of control), agonist: MPLA (TLR4) […]",2.56
CC(C)(C)c1cc(C=C(C#N)C#N)cc(C(C)(C)C)c1O (library stock concentration (final ~1000-fold dilution): 10 mM),NF-kB SEAP reporter activity,[3],5.32
O=C(O)c1nn(Cc2ccc(Cl)cc2Cl)c2ccccc12 (library stock concentration (final ~1000-fold dilution): 10 mM),NF-kB SEAP reporter activity,[2]; agonist: LPS (TLR4) 0.1 ug/mL,1.29
same,NF-kB SEAP reporter activity,[2]; [6],1
same,NF-kB SEAP reporter activity,[2]; [7],1.06
same,NF-kB SEAP reporter activity,[2]; [8],1.04
O=C(O)c1nn(Cc2ccc(Cl)cc2Cl)c2ccccc12,NF-kB SEAP reporter activity,[1]; [4],0.825
same,NF-kB SEAP reporter activity,[1]; [5],0.865
Cc1cc(C(C#N)c2ccc(Cl)cc2)c(Cl)cc1NC(=O)c1cc(I)cc(I)c1O (configuration not stated),NF-kB SEAP reporter activity,[1]; [4],1.03
same,NF-kB SEAP reporter activity,[1]; [5],0.776
Cc1cc(C(C#N)c2ccc(Cl)cc2)c(Cl)cc1NC(=O)c1cc(I)cc(I)c1O (configuration not stated) (library stock concentration (final ~1000-fold dilution): 10 mM),NF-kB SEAP reporter activity,[2]; agonist: LPS (TLR4) 0.1 ug/mL,0.797
same,NF-kB SEAP reporter activity,[2]; [6],0.822
same,NF-kB SEAP reporter activity,[2]; [7],0.978
same,NF-kB SEAP reporter activity,[2]; [8],0.62
CC(=O)O.Cc1cc2c(C(C)C)c(O)c(O)c(C=O)c2c(O)c1-c1c(C)cc2c(C(C)C)c(O)c(O)c(C=O)c2c1O (library stock concentration (final ~1000-fold dilution): 10 mM),NF-kB SEAP reporter activity,[2]; agonist: LPS (TLR4) 0.1 ug/mL,3.69
same,NF-kB SEAP reporter activity,[2]; [6],0.908
same,NF-kB SEAP reporter activity,[2]; [7],1.15
same,NF-kB SEAP reporter activity,[2]; [8],1.2
CC(=O)O.Cc1cc2c(C(C)C)c(O)c(O)c(C=O)c2c(O)c1-c1c(C)cc2c(C(C)C)c(O)c(O)c(C=O)c2c1O,NF-kB SEAP reporter activity,[1]; [4],0.906
same,NF-kB SEAP reporter activity,[1]; [5],0.963
O=c1ccc2cc3ccoc3c(O)c2o1 (library stock concentration (final ~1000-fold dilution): 10 mM),NF-kB SEAP reporter activity,[2]; agonist: LPS (TLR4) 0.1 ug/mL,1.2 and 1.01
same,NF-kB SEAP reporter activity,[2]; [6],1.06 and 0.912
same,NF-kB SEAP reporter activity,[2]; [7],0.937 and 1.01
same,NF-kB SEAP reporter activity,[2]; [8],1.12 and 1.05
COc1ccc(C(CN(C)C)C2(O)CCCCC2)cc1.Cl (configuration not stated) (library stock concentration (final ~1000-fold dilution): 10 mM),NF-kB SEAP reporter activity,[2]; agonist: LPS (TLR4) 0.1 ug/mL,1.56
same,NF-kB SEAP reporter activity,[2]; [6],1.09
same,NF-kB SEAP reporter activity,[2]; [7],1.02
same,NF-kB SEAP reporter activity,[2]; [8],1.25
COc1ccc(C(CN(C)C)C2(O)CCCCC2)cc1.Cl (configuration not stated),NF-kB SEAP reporter activity,[1]; [4],1.11
same,NF-kB SEAP reporter activity,[1]; [5],1.04
